According to the antibiotic and cytotoxicity screens of Wong et al. (2023):
The list shows a part of the results.

How the values were obtained:
[1] = system: HSkMC (human skeletal muscle cells); experiment: cytotoxicity call (relative viability < 0.9); conditions: 10 µM
[2] = system: HepG2; experiment: cytotoxicity call (relative viability < 0.9); conditions: 10 µM
[3] = system: S. aureus RN4220; experiment: growth inhibition call (relative growth <= 0.2); conditions: 50 µM

| Compound | cytotoxicity call [1] | cytotoxicity call [2] | growth inhibition call [3] |
| --- | --- | --- | --- |
| C[C@@H]1CCCCO[C@@H](CN(C)S(=O)(=O)c2cn(C)cn2)[C@H](C)CN([C@H](C)CO)C(=O)c2cc(NC(=O)Nc3cccc4ccccc34)ccc2O1 | inactive | inactive | inactive |
| C[C@@H]1CN([C@H](C)CO)C(=O)c2cccc(NC(=O)Nc3ccc4c(c3)OCO4)c2O[C@@H]1CN(C)C(=O)Nc1ccc(C(F)(F)F)cc1 | inactive | inactive | inactive |
| C[C@H]1CC/C=C\[C@H]2O[C@@]34C=CCN(c5ccc(Cl)cc5)C(=O)[C@H]3N(CCO)C(=O)[C@]4(C)[C@@H]2C(=O)O1 | inactive | inactive | inactive |
| O=C([C@@H]1[C@@H](CO)[C@@H]2Cn3c(cccc3=O)[C@@H]2N1CC1CCCC1)N1CCOCC1 | inactive | inactive | inactive |
| C[C@@H]1CN([C@H](C)CO)C(=O)c2cc(NC(=O)C3CCCCC3)ccc2O[C@@H]1CN(C)Cc1ccc(-c2ccccc2)cc1 | inactive | active | inactive |
| CN1CCN(C(=O)C[C@@H]2CC[C@@H]3[C@H](COC[C@@H](O)CN3C(=O)C3CC3)O2)CC1 | inactive | inactive | inactive |
| C[C@@H]1CCCCO[C@H](CN(C)S(=O)(=O)c2cn(C)cn2)[C@@H](C)CN([C@@H](C)CO)C(=O)c2cc(NS(=O)(=O)c3cccs3)ccc2O1 | inactive | inactive | inactive |
| C[C@H](CO)N1C[C@H](C)[C@@H](CN(C)Cc2ccc(Cl)c(Cl)c2)OCCCC[C@H](C)Oc2ccc(NC(=O)CCC(F)(F)F)cc2C1=O | inactive | inactive | inactive |
| C/C=C/c1cnc2c(c1)C(=O)N([C@H](C)CO)C[C@@H](C)[C@@H](CN(C)S(=O)(=O)c1ccc(OC)cc1)O2 | inactive | inactive | inactive |
| Nc1ccc(C(=O)Oc2ccccc2)c(O)c1 | inactive | inactive | inactive |
| C[C@H](CO)N1C[C@H](C)[C@H](CN(C)C)Oc2cc(C#C[C@@H](C)O)ccc2S1(=O)=O | inactive | inactive | inactive |
| COc1ccc(S(=O)(=O)N2C[C@H](O)COC[C@H]3O[C@@H](CC(=O)N[C@@H]4CCN(Cc5ccccc5)C4)CC[C@@H]32)cc1 | inactive | inactive | inactive |
| COc1ccc(NC(=O)Nc2ccc3c(c2)C(=O)N([C@H](C)CO)C[C@H](C)[C@H](CN(C)S(=O)(=O)c2ccc(C)cc2)OCCCC[C@@H](C)O3)cc1 | inactive | inactive | inactive |
| Cc1ccc(S(=O)(=O)N(C)C[C@@H]2Oc3c(NC(=O)NC(C)C)cccc3C(=O)N([C@H](C)CO)C[C@@H]2C)cc1 | inactive | inactive | inactive |
| Cc1ccc(S(=O)(=O)Nc2ccc3c(c2)CC(=O)N([C@@H](C)CO)C[C@H](C)[C@@H](CN(C)C(=O)Nc2cccc4ccccc24)O3)cc1 | inactive | inactive | inactive |
| C[C@@H]1CCCCO[C@@H](CN(C)Cc2ccc(C(F)(F)F)cc2)[C@H](C)CN([C@H](C)CO)C(=O)c2cc(NS(C)(=O)=O)ccc2O1 | inactive | inactive | inactive |
| COc1ccc(S(=O)(=O)Nc2ccc3c(c2)C(=O)N([C@@H](C)CO)C[C@H](C)[C@@H](CN(C)S(=O)(=O)c2ccc(F)cc2)O3)cc1 | inactive | inactive | inactive |
| C[C@@H]1CN([C@H](C)CO)C(=O)c2cc(NS(=O)(=O)c3ccccc3)ccc2O[C@H]1CN(C)S(=O)(=O)c1cn(C)cn1 | inactive | inactive | inactive |
| Cc1nnsc1-c1onc(C)c1C(N)=O | inactive | inactive | inactive |
| C[C@H]1CN([C@@H](C)CO)C(=O)c2cc(C#CC3(O)CCCC3)cnc2O[C@H]1CN(C)C(=O)Cc1cccnc1 | inactive | inactive | inactive |
| COc1ccc(NC(=O)Nc2ccc3c(c2)[C@@H]2C[C@@H](CC(=O)NCc4ccncc4)O[C@H](CO)[C@@H]2O3)cc1 | inactive | inactive | inactive |
| CC(C)N1C[C@@H](C)[C@H](CN(C)Cc2ccc(Oc3ccccc3)cc2)Oc2c(C(=O)Nc3ccncc3)cccc2C1=O | inactive | inactive | inactive |
| CCCN(C)C[C@H]1OCCCC[C@@H](C)Oc2ccc(NC(=O)CCC(F)(F)F)cc2C(=O)N([C@H](C)CO)C[C@H]1C | inactive | inactive | inactive |
| Cc1ccc(S(=O)(=O)N[C@@H](Cc2ccccc2)C(=O)NCCn2cc(-c3cccc(/C=C/C(=O)NO)c3)nn2)cc1 | inactive | inactive | inactive |
| C[C@@H]1CN([C@@H](C)CO)C(=O)c2cc(NC(=O)Nc3ccccc3)ccc2O[C@H]1CN(C)C(=O)Nc1ccc(C(F)(F)F)cc1 | inactive | inactive | inactive |
| Cc1ccc(S(=O)(=O)N(C)C[C@@H]2Oc3ncc(C#Cc4ccc(F)cc4)cc3C(=O)N([C@H](C)CO)C[C@@H]2C)cc1 | inactive | inactive | inactive |
